# Assay results taken from the supplement of paper PMC3334620.
# The full ranking holds about 33,000 sequences; the median of “E-score (-0.5 to 0.5)” is about -0.032, and the highest 2% start at about 0.36. The list shows a part of the results.
# Biological target: T1, Sko1 (UniProt Q02100)
# T1 sequence: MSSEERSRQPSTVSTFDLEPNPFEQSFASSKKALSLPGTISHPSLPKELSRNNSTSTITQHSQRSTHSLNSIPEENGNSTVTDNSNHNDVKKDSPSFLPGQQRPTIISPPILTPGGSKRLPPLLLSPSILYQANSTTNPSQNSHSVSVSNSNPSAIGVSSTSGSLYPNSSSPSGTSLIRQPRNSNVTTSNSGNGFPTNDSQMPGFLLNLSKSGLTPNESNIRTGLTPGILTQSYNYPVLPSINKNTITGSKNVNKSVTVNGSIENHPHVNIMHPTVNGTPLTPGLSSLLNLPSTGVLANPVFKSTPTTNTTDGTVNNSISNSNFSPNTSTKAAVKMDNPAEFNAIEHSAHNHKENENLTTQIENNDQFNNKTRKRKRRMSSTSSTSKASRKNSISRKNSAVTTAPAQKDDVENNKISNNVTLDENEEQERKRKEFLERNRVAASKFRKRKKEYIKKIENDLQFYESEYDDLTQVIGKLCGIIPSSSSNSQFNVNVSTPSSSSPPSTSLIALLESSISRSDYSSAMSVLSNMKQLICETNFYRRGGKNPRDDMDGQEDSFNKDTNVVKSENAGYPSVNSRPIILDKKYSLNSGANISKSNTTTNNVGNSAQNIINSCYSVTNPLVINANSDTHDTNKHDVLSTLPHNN
# Assay: PBM E-score (8-mer binding enrichment) (E-score (-0.5 to 0.5)); higher = stronger / more preferred TF binding; most listed sequences are background and not binding sites
# Conditions: protein concentration: 200 nM; construct: GST-full length
# Method in brief: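 For each ungapped eight-base word taken together with its reverse complement, the Universal PBM Analysis Suite assigned an E-score. Binding data came from GST-tagged yeast transcription factors, applied at about 100-200 nM, on universal all-10-mer Agilent arrays made double-stranded by primer extension. Fluorescent anti-GST marked bound protein, and scans were normalised with masliner.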
row,Sequence,PBM E-score
1,TCTAGGAA,-0.0779
2,GAGAAAGA,-0.0919
3,GGTTGGCA,-0.0984
4,CTAAGTCA,0.0862
5,CATTCGTC,0.304
6,AATTCGCC,0.111
7,ATAGCTGC,0.0957
8,GCGGGCAA,-0.102
9,CCCAACTA,0.00148
10,CCCGAGAG,-0.322
11,CTACGTGA,0.404
12,CCCATCTA,-0.144
13,ACACCATA,0.0576
14,ACTACGTA,0.484
15,ATGATCCA,-0.207
16,AATATTGT,0.231
17,GCGTTTGA,-0.00543
18,AGCATATC,-0.0137
19,TAACCATA,0.107
20,AATCTAAC,0.124
21,CTGCCATA,-0.0751
22,AGCGCTAC,-0.0646
23,AAAGAGGG,-0.0821
24,GTAGATGA,0.16
25,GGCGAAAC,-0.191

row,Sequence,PBM E-score
1,TGGATCCA,0.0102
2,AATCTTAG,-0.0134
3,AGTGTTAT,0.0725
4,ATTTGCGC,-0.0334
5,GATCCCAC,-0.0209
6,AAAAGGGT,-0.0508
7,TCGGATAA,-0.00727
8,TCTTATAA,0.0225
9,ATCGCCGA,-0.0393
10,AGTCCCCA,-0.281
11,CGGTCAGA,-0.121
12,CGCGTAAC,0.332
13,CAGCGCTC,-0.238
14,TCACTCCA,-0.019
15,ATTAAAGC,0.0316
16,CTTCGCGA,-0.165
17,CGTTATAA,0.27
18,TCAGGTAA,-0.0329
19,AAATGGAC,0.114
20,AGCAGTTC,0.0374
21,AGGCCATC,-0.0882
22,TACGGGGA,-0.0747
23,ATCAGCCA,-0.214
24,AGACTGTG,-0.0493
25,CTAATGTC,0.0291

row,Sequence,PBM E-score
1,ATATCCGC,-0.031
2,CAAAAAGG,-0.113
3,AGTTGTTC,0.0782
4,GTACGGAA,-0.00063
5,ATATCGGA,-0.0255
6,CAGCCTGG,-0.188
7,CTCCTACC,-0.19
8,TACCCGTA,-0.127
9,CTCCATTC,-0.169
10,CACAGTAC,0.019
11,CTACGGTC,-0.157
12,AAATCATT,0.171
13,CCCTTTTC,-0.124
14,CTCGGGGC,-0.304
15,AGAATCCC,-0.0186
16,ATTGCTCC,-0.24
17,CACAACAC,0.0806
18,CAGTCCGG,-0.347
19,CATAGGCG,-0.169
20,TACACCTA,0.0535
21,GTATAGCA,0.264
22,CCTTCCAA,-0.11
23,GGGCAAAA,-0.143
24,GCTAGAGC,-0.0879
25,GAACGCTA,-0.0985

row,Sequence,PBM E-score
1,GCAGGGAC,-0.175
2,ACGGGCAT,-0.202
3,CCGGTGCC,-0.189
4,AACCCGGA,-0.248
5,ATGCCATC,0.0604
6,ACCTAGCC,-0.21
7,AGGCTGTG,-0.209
8,GTTCAGTA,0.163
9,ACGCGGTA,0.0969
10,GCATATAC,0.0862
11,AACAGACC,0.0572
12,CAACTCTG,-0.161
13,CTCGGATC,-0.0845
14,CGTTATCC,0.173
15,CCTGACCG,-0.294
16,AAAGATTT,0.0922
17,CATTCGCC,-0.112
18,CCCAAAAA,-0.143
19,TAATCGTA,0.334
20,AGAGGATC,-0.159
21,TCCTGAGA,-0.00979
22,AAGTAATA,0.104
23,CCGCCTAC,0.00758
24,ACCTAATG,0.054
25,GCACACAC,-0.054

row,Sequence,PBM E-score
1,GTCCACAA,0.0551
2,CCAAGAAC,-0.126
3,AGTTCAAT,0.066
4,TTAGCTAA,0.226
5,ACTACAAA,0.177
6,ATTGCGTG,0.419
7,ACGATCCG,-0.216
8,CGGTCCGC,-0.276
9,ACCACAAG,-0.236
10,ATGTCGAG,-0.124
11,GGTCGAGA,-0.223
12,CACCTACA,-0.02
13,ATTAGATC,0.19
14,GCAAGCTA,0.0116
15,AACTGACT,-0.0679
16,GCGTACAC,0.213
17,ATCGGATG,-0.12
18,CTTGCAGC,-0.128
19,AACGTAAG,0.397
20,GATTCTGA,0.146
21,CAATACTG,-0.165
22,ATCTTTAC,0.217
23,ACTCTACT,0.0326
24,ACGACGAA,0.25
25,AGAGAAGA,0.0948

row,Sequence,PBM E-score
1,CCCCCAGA,-0.311
2,TTGAAAAA,0.193
3,AAAGTCTT,0.0148
4,AACTTATG,0.19
5,CGTAATTC,0.435
6,CACCCAAC,-0.22
7,ATTGCGTC,0.414
8,ACTTGCAG,-0.0878
9,CTTAACCC,-0.19
10,ATAAGCTA,0.194
11,CGCCAGTC,-0.208
12,ACCTACTC,-0.00224
13,AGCCGGCC,-0.246
14,AAGCTTGA,-0.122
15,AAGTCAGA,-0.178
16,CACGGTCA,-0.0828
17,GCCCAAAC,-0.16
18,AGTATGTC,0.213
19,GAAATATC,0.0141
20,AAAGAGAA,0.078
21,ACCAACAA,0.147
22,CCCTTTCC,-0.252
23,AGGTAACT,0.0427
24,CCTCAAGA,-0.138
25,ATGGCCAG,-0.0993

row,Sequence,PBM E-score
1,AGCGAAAA,-0.00017
2,TCAACGAA,0.127
3,CTTGTTTA,0.0536
4,ACTTTCCC,-0.0503
5,AACGCGGT,-0.0313
6,CAATCTTA,0.137
7,GTATGCCA,-0.0206
8,ACCAGCGG,-0.224
9,ACCTTGCA,-0.213
10,CCGTGATC,-0.255
11,ACATGGCT,-0.131
12,ATGGATTA,-0.0995
13,AGTTGGTG,-0.0352
14,CCTCATAA,0.201
15,CCACCGGA,-0.137
16,ACAACCAC,0.077
17,GCGGCGAC,-0.221
18,ATCATTGC,0.191
19,TGATACCA,0.141
20,CTTCGGAC,-0.0397
21,AGACAAGC,-0.00534
22,AAACGCTC,-0.0073
23,CGTAGCAC,0.295
24,GAGAGATC,-0.0164
25,AATTGGGT,0.12

row,Sequence,PBM E-score
1,TCGATGCA,-0.0881
2,AAATCGAC,0.0539
3,ATCGCCCA,-0.261
4,CTGACGTC,0.482
5,AGCCGGCG,-0.133
6,TCCGTAAA,-0.0256
7,GTAGAGCA,-0.125
8,ACACGACA,0.199
9,ACAACGAT,0.0479
10,CAGGCCGA,-0.182
11,CCCTCGGA,-0.188
12,CTTCTCAC,-0.102
13,CGACCCAG,-0.181
14,TCTGACCA,0.0416
15,CCTCGCAC,0.00642
16,ACTCTGGG,-0.192
17,AGCGCTCG,-0.31
18,CAAGCTGA,-0.0925
19,CTTCCTTA,0.0568
20,CCCTGTGC,-0.174
21,GATGTTGA,0.148
22,ACCCTACT,-0.0914
23,AAGGGGCA,-0.275
24,GGGGTTTA,-0.235
25,CAGTTGCC,0.0837

row,Sequence,PBM E-score
1,ATTATGGA,0.173
2,AAATGGGT,0.104
3,CAAATCTC,-0.0604
4,CTGATCTC,-0.0913
5,GCACAACC,-0.219
6,AGTTTCGG,-0.0342
7,GAAACGCC,0.145
8,TGCAGCAA,0.0131
9,GAGGCATC,-0.0198
10,AGACAGGA,-0.00599
11,CCGGGGGA,-0.461
12,ATGCAATG,0.159
13,ATCGCTGC,-0.0434
14,CTTAAGAA,0.145
15,AAACGGAC,-0.0384
16,GAGCCTGC,-0.228
17,CATTATAC,0.192
18,CTCATTCA,0.0229
19,ATGAGCCC,-0.326
